From PubChem BioAssay AID463173 (ICCB-Longwood Screening Facility, Harvard Medical School, 2010)
Hit rate of the full screen: of about 52,000 compounds, about 1,700 (3.3%) were called active. Rule as the data show it: active = survival mostly below about 52% (no sharp cut-off); inactive = mostly above about 56%. Some of the results follow.

Test system: Wild type
Assay: S. aureus survival, RN4220 and DeltatarO strains – OD600, teichoic acid synthesis inhibitors, primary screen (AID 463173)
Conditions: S. aureus RN4220 wild type/DeltatarO growth, OD600, 18 h, active compounds read low, screened at 18.75 µg/mL (by protocol)

Compound	survival
CC(NC(=O)c1ccc2nc(Cc3ccccc3)oc2c1)c1ccccc1 (stereo not given)	inactive: 78%
O=C(c1ccco1)c1cn(CC(=O)N2CCc3ccccc3C2)c2ccccc12	inactive: 129%
COc1ccc(NC(=O)Cn2cc(C(=O)C3CCCCC3)c3ccccc32)cc1	inactive: 79%
Cc1c(Cl)cccc1NC(=O)C(=O)NCC(c1cccnc1)N1CCN(c2ccccc2)CC1 (stereo not given)	inactive: 85%
CCNC(=O)C1CCN(S(=O)(=O)c2ccc(C)cc2)CC1	inactive: 117%
O=C(C1CCN(S(=O)(=O)Cc2ccccc2)CC1)N1CCN(c2ccccc2F)CC1	inactive: 85%
CCc1ccccc1NC(=O)C(C)n1nc(-c2ccc(C)c(C)c2)ccc1=O (stereo not given)	inactive: 86%
Cc1cccc(Cn2cc(C(=O)Nc3ccc(S(N)(=O)=O)cc3)ccc2=O)c1	inactive: 78%
COc1ccc(Cl)cc1NC(=O)N1CCC(CN2CCCCCC2)CC1	inactive: 55%
Cc1ccc(C)c(Nc2nc3nonc3nc2Nc2cccc(C)c2C)c1	active: 4%
CC1=C(C(=O)OCC2CCCCC2)C(c2ccc(Cl)cc2Cl)CC(=O)N1 (stereo not given)	inactive: 82%
CSc1cccc(NC(=O)Cn2cnc(S(=O)(=O)N3CCCC3)c2)c1	inactive: 71%
O=C(Nc1ccccc1OCc1cc(=O)n2ccccc2n1)c1ccccc1F	inactive: 51%
CCCn1c2ccccc2c2cnn(CC(=O)NCc3cc(OC)ccc3OC)c(=O)c21	inactive: 124%
CCCCNC(=O)CN1C(=O)COc2ccc(S(=O)(=O)N3CCCC3)cc21	inactive: 79%
COc1ccc(CNC(=O)CN2C(=O)CSc3ccc(S(=O)(=O)N4CCCC4)cc32)cc1	inactive: 94%
CCOC(=O)c1cccc(NC(=O)C(Cc2ccccc2)NS(=O)(=O)c2cccc3nsnc23)c1 (stereo not given)	inactive: 93%
CCC(=O)Nc1ccc(NC(=O)c2ccc(F)cc2)nc1	inactive: 103%
COc1ccc(CNC(=O)C(=O)NCC(c2ccco2)S(=O)(=O)c2ccc(C)cc2)cc1 (stereo not given)	inactive: 136%
COC(=O)c1ccc(Cn2nnc3sc4c(c3c2=O)CCCC4)cc1	inactive: 77%
COc1cc2nc(Nc3ccc(F)cc3)nc(N)c2cc1OC	inactive: 87%
CCc1ccccc1OCCSc1nnc(-c2cc(OC)c(OC)c(OC)c2)o1	inactive: 118%
CCC1SC(NC(=O)COc2ccc(OC)cc2)=NC1=O (stereo not given)	inactive: 100%

Compound	survival
COc1ccc(NC(=O)CN(C)S(=O)(=O)c2cccc3nsnc23)cc1	inactive: 79%
CC(C)Oc1ccc(CSCCN)cc1	inactive: 105%
Cc1cc(S(=O)(=O)NCC(c2ccc(N(C)C)cc2)N2CCOCC2)ccc1F (stereo not given)	inactive: 82%
O=C(CSC1=Nc2ccccc2N=C(c2ccc(F)cc2)C1)NCc1ccc(Cl)cc1	inactive: 75%
CCN(CC)c1ccc(NC(=O)c2cc3c(=O)n4cccc(C)c4nc3n2C)c(C)c1	inactive: 94%
CCCCCNC(=O)CCn1c(=O)[nH]c2ccccc2c1=O	inactive: 140%
CCn1nc(C)c2c(-c3ccccc3)cc(=O)n(C(C)C(=O)NCc3ccc(C)cc3)c21 (stereo not given)	inactive: 127%
CC(=O)c1ccc(NC(=O)c2nc3ccccc3n(C)c2=O)cc1	inactive: 74%
COc1ccc(/C=C/c2nc3ccccc3c(=O)n2-c2cccc(C(F)(F)F)c2)cc1	inactive: 65%
O=S1(=O)CCC(N=Cc2ccc(-c3ccc(Br)cc3)o2)C1 (stereo not given)	inactive: 113%
C=CCN(CC=C)C(=O)CCN1C(=O)c2ccccc2C1=O	inactive: 112%
Cc1ccc(CN(C(=O)COc2ccc(Cl)cc2Cl)C2CCS(=O)(=O)C2)o1 (stereo not given)	inactive: 89%
Cc1[nH]c(=O)[nH]c(=O)c1S(=O)(=O)N1CCN(c2cccc(Cl)c2)CC1	inactive: 65%
O=C(Nc1cccc(C(F)(F)F)c1)Nc1nnc(N2CCCCC2)s1	inactive: 88%
COc1ccc(S(=O)(=O)Nc2cccc(-c3ccc(N4CCCC4)nn3)c2)cc1OC	inactive: 87%
Cc1ccc(C)c(CN2C(=O)CSc3ccc(C(=O)NCCc4ccc(Cl)cc4)cc32)c1	inactive: 63%
CCCNC(=O)Cn1nc(-c2ccc(C)c(C)c2)c2cnc3ccc(F)cc3c21	inactive: 69%
Clc1ccc(CNc2cc(-c3ccccc3)nc3nncn23)cc1	inactive: 72%
CCN(c1ccccc1)S(=O)(=O)c1ccc2[nH]cc(C(=O)NCc3ccc(C)cc3)c(=O)c2c1	inactive: 127%
N#Cc1c(Nc2cccc(F)c2)sc(C(=O)c2ccc(Cl)cc2)c1N	inactive: 101%
COc1ccc(N2CC(NC(=O)c3ccc(OC(C)C)cc3)CC2=O)cc1 (stereo not given)	active: -2%
Cc1c(-c2ccc(Cl)cc2)c(=O)oc2c(CN3CCCC3)c(O)ccc12	inactive: 85%
Cc1ccc(OCC(=O)Nc2ccc3nc(Nc4cccc(Cl)c4)cc(C)c3c2)cc1	inactive: 130%

Compound	survival
COc1ccc(-c2nc3sc(CCNS(=O)(=O)c4ccc(F)c(C)c4)c(C)n3n2)cc1	inactive: 55%
COc1ccccc1CNC(=O)CN1C(=O)CCn2nc(-c3ccccc3)cc21	inactive: 65%
Nc1ccc2[nH]c(=O)nc(-c3ccccc3)c2c1	inactive: 107%
COc1nc(OC)nc(N2CCC(C(=O)NC3CCCCCC3)CC2)n1	inactive: 110%
COc1ccc(N(C(=O)COc2ccccc2OC)S(=O)(=O)c2ccc(Cl)cc2)cc1	inactive: 62%
O=C(c1ccccc1)n1nc(-c2ccco2)nc1NCc1ccccc1Cl	inactive: 106%
CCc1ccccc1NC(=O)Nc1cc(C(=O)NCc2ccc(OC)cc2)ccc1N1CCCC1	inactive: 128%
Cc1noc(C)c1S(=O)(=O)N1CCCC(C(=O)Nc2ccc(C(C)C)cc2)C1 (stereo not given)	inactive: 90%
COc1cccc(-n2cc(C(=O)Nc3cc(C)c(Cl)cc3OC)c3ccccc3c2=O)c1	inactive: 83%
CCOc1ccc(CCNC(=O)C2CCC(CNS(=O)(=O)c3ccc(Cl)cc3)CC2)cc1OCC (stereo not given)	inactive: 87%
CCC1(CO)COC(c2ccco2)OC1 (stereo not given)	inactive: 106%
CCOc1ccc(CNC(=O)C2CCN(c3nn4c(=O)cc(C)nc4s3)CC2)cc1	inactive: 87%
Cc1ccccc1C(=O)NN1C(=O)c2ccccc2C1=O	inactive: 103%
CCOCCCNC(=O)c1cc2c(=O)[nH]c3ccccc3c2n1C	inactive: 125%
O=C(CCCn1ccc2cc(S(=O)(=O)N3CCCC3)ccc21)NCc1ccc(Cl)cc1	inactive: 70%
CC1CC(=O)N(CC(=O)Nc2ccc(F)cc2F)c2ccccc2S1 (stereo not given)	inactive: 84%
Cc1c(-c2ccccc2)c(=O)oc2c(CN3CCCC3)c(O)ccc12	inactive: 113%
CCc1ccc(C2CC(=O)NC(NC(=O)c3ccc(C(C)(C)C)cc3)=N2)cc1 (stereo not given)	inactive: 59%
CCOc1ccc(/C=C/c2nc(C#N)c(Nc3ccc(OCC)cc3)o2)cc1	inactive: 92%
Cn1c(=O)[nH]c(=O)c2c1nc(NCCO)n2CC(O)COc1ccccc1 (stereo not given)	inactive: 149%
Cc1nc2ccn(Cc3ccccc3)c(=O)c2cc1C(=O)NCc1ccccc1F	inactive: 99%
CC1(C)Oc2ccc(C(=O)N3CCCC3)cc2N(CC(=O)N2CCCCC2)C1=O	inactive: 101%
CC1CCCN(C(=O)CSc2nnc(COc3ccc(Cl)cc3)n2C)C1 (stereo not given)	inactive: 102%

Compound	survival
O=C(NCCc1ccc(Cl)cc1)c1ccc2c(c1)N(Cc1ccccc1F)C(=O)c1ccccc1S2(=O)=O	inactive: 100%
COc1ccc(NC(=O)Nc2cccc(-c3cn4cccnc4n3)c2)cc1	inactive: 77%
CCOc1ccc(NC(=O)Cn2c(=O)n(Cc3ccc(C(=O)NCc4ccc(C)cc4)cc3)c(=O)c3ccccc32)cc1	inactive: 70%
COc1cccc(CNC(=O)CN2C(=O)COc3ccc(S(=O)(=O)N4CCCCCC4)cc32)c1	inactive: 89%
Cc1ccc(-c2nc3ncccc3o2)cc1NC(=O)c1ccccc1Br	inactive: 79%
CCc1cccc(NC(=O)Cn2c(=O)n(CCC(=O)NCC3CCCO3)c(=O)c3cc(OC)c(OC)cc32)c1 (stereo not given)	inactive: 75%
Cc1ccc(CSC2=Nc3ccccc3C3=NC(CC(=O)NCc4cccs4)C(=O)N23)cc1 (stereo not given)	inactive: 69%
O=C(CS(=O)(=O)Cc1ccccc1)Nc1ccc2c(c1)OCO2	inactive: 114%
Cc1ccc(CNC(=O)c2cc3c(s2)-c2ccc(Cl)cc2SC3)cc1	inactive: 90%
CN(C)c1ccc(NC(=O)CN2CCN(CC(=O)Nc3ccc(Br)cc3)CC2)cc1	inactive: 71%
O=C(NCCC1=CCCCC1)C1CC(O)CN1C(=O)Nc1ccccc1 (stereo not given)	inactive: 98%
CCN(C(=O)C1CCCN(c2ncnc3onc(-c4ccc(F)cc4)c23)C1)c1ccccc1 (stereo not given)	inactive: 126%
O=C(NC1CCCC1)c1cc(-c2ccccc2)on1	inactive: 121%
CC(=O)N1CCN(c2ccccc2N)CC1	inactive: 93%
COc1ccc(C(=O)Nc2nnc(S(=O)(=O)N3CCC(C)CC3)s2)cc1OC	inactive: 85%
O=C(c1cccc(F)c1)N1CCC(c2c[nH]c3ccccc23)(c2c[nH]c3ccccc23)CC1	inactive: 63%
CCOc1ccc(NC(=O)NCCn2nnc3cc(S(=O)(=O)N(C)C)ccc32)cc1	inactive: 76%
CC(C)(C)c1ccc(-c2nc(S(=O)(=O)c3ccccc3)c(N3CCOCC3)o2)cc1	inactive: 33%
O=C(NCC1CCCO1)c1c[nH]c2ccc(S(=O)(=O)Nc3ccc(F)cc3F)cc2c1=O (stereo not given)	inactive: 83%
Cc1ccc(CNC(=O)c2sc3nc(-c4ccc(F)cc4)ccc3c2N)cc1	inactive: 109%
CCOC(=O)C1=C(CN2CCCCC2)NC(=O)NC1c1ccc(C)cc1 (stereo not given)	inactive: 77%
